# Source: paper PMC4336329 (PLoS ONE, 2015)
# In all, about 310,000 compounds went through this assay and about 14,000 (4.5%) showed an effect of 50% or more. Effects have a minus sign here. The list shows a part of the results.
# Biological target: human ether-à-go-go-related gene (hERG) potassium channel (human, UniProt Q12809)
# Assay: primary screen, population patch clamp on CHO cells stably expressing hERG
# 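Note: peak tail current of the secondary pulse compared with the same well before compound.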
# human ether-à-go-go-related gene (hERG) potassium channel, sequence (Q12809 whole entry, looked up): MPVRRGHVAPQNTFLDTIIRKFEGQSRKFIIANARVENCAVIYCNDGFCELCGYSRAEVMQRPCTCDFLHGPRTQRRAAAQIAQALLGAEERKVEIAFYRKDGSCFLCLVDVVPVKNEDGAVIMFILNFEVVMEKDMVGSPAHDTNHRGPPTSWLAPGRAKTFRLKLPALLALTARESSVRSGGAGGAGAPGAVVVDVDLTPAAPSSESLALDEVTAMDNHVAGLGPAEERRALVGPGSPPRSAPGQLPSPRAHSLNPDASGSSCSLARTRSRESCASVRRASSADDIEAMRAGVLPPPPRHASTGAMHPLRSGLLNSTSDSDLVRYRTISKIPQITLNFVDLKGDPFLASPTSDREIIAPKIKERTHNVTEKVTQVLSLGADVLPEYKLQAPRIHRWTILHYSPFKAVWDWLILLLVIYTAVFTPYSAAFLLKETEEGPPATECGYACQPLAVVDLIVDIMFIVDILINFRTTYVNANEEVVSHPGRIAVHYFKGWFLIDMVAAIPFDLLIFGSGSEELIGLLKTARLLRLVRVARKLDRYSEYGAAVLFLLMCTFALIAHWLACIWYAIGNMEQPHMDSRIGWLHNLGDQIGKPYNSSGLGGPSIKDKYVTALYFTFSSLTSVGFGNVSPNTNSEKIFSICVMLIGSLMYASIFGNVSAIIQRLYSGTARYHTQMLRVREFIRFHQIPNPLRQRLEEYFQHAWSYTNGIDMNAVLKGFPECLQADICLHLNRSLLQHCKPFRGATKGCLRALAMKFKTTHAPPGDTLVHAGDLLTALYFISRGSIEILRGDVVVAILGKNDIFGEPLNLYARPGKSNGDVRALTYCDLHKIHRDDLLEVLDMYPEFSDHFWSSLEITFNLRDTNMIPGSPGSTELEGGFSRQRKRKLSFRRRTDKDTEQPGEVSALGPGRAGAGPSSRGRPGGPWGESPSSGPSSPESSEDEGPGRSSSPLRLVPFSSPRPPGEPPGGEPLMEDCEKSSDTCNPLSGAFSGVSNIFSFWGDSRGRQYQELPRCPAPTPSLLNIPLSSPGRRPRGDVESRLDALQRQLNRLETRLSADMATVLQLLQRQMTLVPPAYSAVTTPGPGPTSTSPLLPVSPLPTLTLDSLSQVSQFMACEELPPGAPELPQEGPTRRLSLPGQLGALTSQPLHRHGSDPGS
row,Structure (SMILES),"hERG current change (%, negative = inhibition) at 10uM [%]"
1,O=C(NCCS(=O)(=O)NC1CCCCC1)c1ccc2c(c1)OCO2,6.14
2,CCCCP(=O)(CCCC)c1ccccc1C(=O)O,4.39
3,Cc1c(-c2cccc(Cl)c2)nc2ccccc2c1C(=O)OCC(=O)N(C)C1CCS(=O)(=O)C1 (stereo not drawn),-34.4
4,O=C(CSc1nccc(=O)[nH]1)NCc1ccco1,15.7
5,COc1ccc(CNc2n[nH]c(NCc3ccc(OC)c(OC)c3)n2)cc1OC,1.3
6,O=C(O)c1ccccc1S(=O)(=O)CC(=O)N1CCCCC1,15.4
7,C=CCNC(=O)c1sc(=S)n(-c2ccc(C(=O)OCC)cc2)c1N,-4.18
8,COc1ccc(Cn2c(O)c(C=Nc3ccccc3C(=O)O)c3ccccc3c2=O)cc1,11.3
9,O=C1CN(c2nc(-c3ccccc3)c3cc(Cl)ccc3n2)c2ccccc2N1,13.1
10,CCN(c1ccccc1)S(=O)(=O)c1ccc2[nH]cc(C(=O)NCCOC)c(=O)c2c1,18.5
11,CCOC(=O)c1c(S(=O)(=O)N2c3ccccc3CC2C)c(C)n(C)c1C (stereo not drawn),13.1
12,CCn1c(=O)cc(OCC(=O)NCc2ccc(C)o2)c2ccccc21,-14.7
13,O=C(CN1CCOCC1)N1c2ccccc2Sc2ccccc21,13.8
14,O=C(N[C@H](C(=O)O)c1ccccc1)C1CCC(Cn2nnc3ccccc3c2=O)CC1 (stereo partly drawn),-10
15,Cc1ccc(/C=C/C(=O)NC(C)c2ccccc2)cc1 (stereo not drawn),-4.84
16,CC(=O)Nc1ccc(NC(=O)COC(=O)c2c(C)nn(-c3ccccc3)c2C)cc1,-4.07
17,COc1cccc(CN2C(=O)CN(C3CCCCC3)C(=O)C2c2ccc(F)cc2)c1 (stereo not drawn),-35.6
18,NS(=O)(=O)c1ccc(NC(=O)CSc2ncccn2)cc1,8.6
19,Nc1c(N2CCN(c3ccccc3)CC2)c2ccccc2oc1=O,-50.1
20,O=C(Nn1c(O)c(C=C2N=c3ccccc3=N2)sc1=S)c1ccccc1Cl,2.54
21,O=S(=O)(NCc1ccccc1)c1ccccc1Br,-7.71
22,N#C/C(=C\c1c(Oc2ccc(Cl)cc2)nc2ccccn2c1=O)C(=O)NC1CCS(=O)(=O)C1 (stereo not drawn),-16.9
23,COc1cc(C(=O)NC2CCCc3ccccc32)ccc1OCC(=O)Nc1ccc(F)cc1 (stereo not drawn),11.3

row,Structure (SMILES),"hERG current change (%, negative = inhibition) at 10uM [%]"
1,CCN(CC(=O)Nc1ccc2c(c1)OCCO2)C(=O)c1cc(=O)[nH]c2ccccc12,3.21
2,COc1ccc(CCNCc2ccccn2)cc1OC,0.278
3,COc1ccccc1CNC(=O)CSc1nc2nc(C)cc(C)n2n1,-3.37
4,O=C(CCc1nnc2ccc(NCc3ccccc3Cl)nn12)N1CCC2(CC1)OCCO2,-67.7
5,CC(C)CC1COC(=O)N1 (stereo not drawn),3.03
6,O=C1CC(Nc2ccc(N3CCOCC3)cc2)C(=O)N1c1ccccc1F (stereo not drawn),0.895
7,COc1ccc(C(=O)COC(=O)CCn2nnc(-c3cccs3)n2)cc1,10.6
8,CCc1nnc(NC(=O)c2sc3nc4c(cc3c2N)CCCCC4)s1,-12.1
9,CSc1ncccc1C(=O)OCC(=O)c1ccccc1,35
10,CCc1cc(C(=O)N2CCN(S(=O)(=O)c3ccc(Cl)cc3)CC2)sc1C,10.3
11,Cc1nc(CCN2C(=O)c3ccccc3C2=O)cs1,1.17
12,O=C1CC(Nc2ccccc2)C(=O)N1c1ccc(N2CCOCC2)cc1 (stereo not drawn),1.75
13,CCN(CC)c1ccc(C2C3CCCCC3(O)CCN2CC(=O)Nc2ccccc2)cc1 (stereo not drawn),-6.69
14,CC(C)Cc1nc(S(=O)(=O)c2ccc(Cl)cc2)c(N2CCOCC2)o1,-6.14
15,O=C(/C=C/c1ccccc1Cl)NCCc1ccccc1,-12.5
16,COCCCn1c(-c2cccc(Cl)c2)nc2c1c(=O)[nH]c(=O)n2Cc1ccccc1,-0.77
17,Cc1cc(C)c(OCC(=O)OCC(=O)N2c3ccccc3CC2C)c(C)c1 (stereo not drawn),21.3
18,CCn1c(=O)c(C(C)=O)c(O)c2ccccc21,14.3
19,COc1ccccc1NC(=O)C1CCCN(c2nc(C)cc(C)n2)C1 (stereo not drawn),-10
20,O=C(N/N=C/c1coc2ccccc2c1=O)c1ccc(Cl)cc1,21.7
21,Fc1ccc(-c2cnn3c(-c4ccncc4)ccnc23)cc1,2.27
22,Cc1cc(N2CC(C)OC(C)C2)nc2ccccc12 (stereo not drawn),-31.2
